Data: the supplement of paper PMC12217912
This is one part of the list. Sequences were assembled here from the parent chain. Inactive controls read about 0.05.

B1: TEV protease; numbered along this chain (parent)
chain: MGESLFKGPRDYNPISSSICHLTNESDGHTTSLYGIGFGPFIITNKHLFRRNNGTLVVQSLHGVFKVKDTTTLQQHLVDGRDMIIIRMPKDFPPFPQKLKFREPQREERICLVTTNFQTKSMSSMVSDTSCTFPSGDGIFWKHWIQTKDGQCGSPLVSTRDGFIVGIHSASNFTNTNNYFTSVPKNFMELLTNQEAQQWVSGWRLNADSVLWGGHKVFMVKPEEPFQPVKEATQL

Variants of: B1
Assay: raw area under fraction-flipped curve 0-4 h after induction (AUC4h, not background-subtracted), DNA-recorder readout of cleavage of the substrate (dimensionless); higher = more cleavage of the substrate by the protease variant
Details: temperature: 34 °C; time window: 0-4 h after rhamnose induction
Description: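 In vivo DNA recorder in E. coli TOP10(DE3) ΔrhaA at 34 °C. Each TEVp single-site mutant (parent TEVp 0) is paired with a single-site variant of the 7-mer TEVs (canonical ENLYFQ|S). The substrate sits between flexible linkers in a Bxb1-sfGFP-TEVs-SsrA fusion, so cleavage stabilises Bxb1 and speeds flipping of a recombination array, read by NGS. The value is the raw area under the fraction-flipped curve over 0-4 h after rhamnose induction (AUC4h), with ≥20 reads per time point. It is not background-subtracted; inactive controls average about 0.047.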
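Further: Bxb1 expression induced with 0.2% (w/v) L-rhamnose at OD600 near 0.5, cultures sampled hourly, flipped fraction per protease–substrate barcode pair counted by paired-end Illumina sequencing.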

Variant | area with substrate ENLAFQS | area with substrate ENLCFQS | area with substrate ENLDFQS | area with substrate ENLEFQS | area with substrate ENLFFQS | area with substrate ENLGFQS | area with substrate ENLHFQS | area with substrate ENLKFQS | area with substrate ENLLFQS | area with substrate ENLMFQS | area with substrate ENLNFQS | area with substrate ENLPFQS | area with substrate ENLQFQS | area with substrate ENLRFQS | area with substrate ENLSFQS | area with substrate ENLTFQS | area with substrate ENLWFQS | area with substrate ENLIFQS | area with substrate ENLVFQS
I19G | 0.0541 | 0.0623 | 0.0548 | 0.0572 | 0.0699 | 0.0547 | 0.0632 | 0.0709 | 0.0633 | 0.0512 | 0.0558 | 0.0642 | 0.0495 | 0.0735 | 0.0488 | 0.0663 | 0.0684 |  | 
E25C | 0.0773 | 0.0795 | 0.0714 | 0.0637 | 0.0896 | 0.0461 | 0.077 | 0.078 | 0.0821 |  | 0.0624 | 0.0457 | 0.0735 | 0.0709 | 0.0636 | 0.0677 | 0.0624 | 0.0937 | 
N24G | 0.0692 | 0.055 | 0.0684 | 0.0653 | 0.0706 |  | 0.0537 | 0.0786 | 0.0666 | 0.065 | 0.0707 | 0.0573 | 0.0522 |  | 0.0681 | 0.0578 | 0.0659 | 0.0734 | 0.0622
N24A | 0.0556 | 0.0632 | 0.0669 | 0.0552 | 0.0739 | 0.0613 | 0.0583 | 0.074 | 0.0653 |  | 0.0614 | 0.0704 | 0.0639 | 0.0728 | 0.0534 | 0.0622 | 0.0611 | 0.0814 | 0.0498
N24V | 0.0703 |  | 0.0695 | 0.062 | 0.0826 |  | 0.077 | 0.0696 | 0.0744 |  | 0.0543 | 0.0529 |  | 0.0638 |  | 0.0673 | 0.0598 | 0.0789 | 0.0768
N24S | 0.047 |  | 0.0629 |  | 0.0675 |  | 0.0647 | 0.0631 |  |  | 0.0721 | 0.0599 |  |  |  | 0.0807 | 0.0469 | 0.0648 | 0.0704
N24P | 0.0555 | 0.0613 | 0.0623 | 0.0627 | 0.0636 | 0.0601 | 0.0596 | 0.0548 | 0.043 | 0.0498 | 0.0558 | 0.0562 | 0.0649 | 0.049 | 0.066 |  | 0.0569 | 0.061 | 
S17C | 0.0632 | 0.0736 | 0.0535 | 0.0688 | 0.0889 | 0.0404 | 0.0746 | 0.076 | 0.0581 |  | 0.0606 | 0.0613 | 0.0534 | 0.0686 | 0.099 |  | 0.0654 | 0.095 | 
S17G | 0.0656 | 0.0389 | 0.0628 |  | 0.0861 | 0.0732 | 0.065 | 0.0851 | 0.0851 | 0.0659 | 0.0663 | 0.0589 | 0.0761 | 0.0692 | 0.0538 |  | 0.0747 |  | 0.101
E3Y | 0.0703 |  | 0.063 | 0.0539 |  |  |  |  | 0.0639 |  | 0.0452 |  |  |  |  |  |  | 0.0579 | 
I15N | 0.0563 | 0.0748 | 0.0594 | 0.061 | 0.0725 |  | 0.0593 | 0.0505 |  | 0.0576 | 0.0516 | 0.0715 | 0.0573 | 0.0462 | 0.0549 |  | 0.0476 |  | 0.0814
I15F | 0.0746 | 0.0687 | 0.0657 | 0.0666 | 0.0716 | 0.0756 | 0.0594 | 0.0733 | 0.0738 |  | 0.0654 | 0.0535 | 0.064 | 0.071 | 0.0624 |  | 0.062 |  | 
G8M | 0.0778 |  |  |  | 0.0766 |  | 0.0596 | 0.0575 |  | 0.064 | 0.0647 |  |  |  |  |  | 0.0594 |  | 
N13C | 0.0697 | 0.0726 | 0.064 | 0.0642 | 0.0915 |  | 0.0557 | 0.0748 | 0.0823 | 0.0726 | 0.0666 | 0.0935 | 0.0708 | 0.0623 | 0.063 |  | 0.071 | 0.0892 | 0.0815
N13Q | 0.0617 | 0.0784 | 0.0566 | 0.0595 | 0.0909 | 0.0688 | 0.0631 | 0.0729 |  | 0.0584 | 0.056 | 0.0606 | 0.0757 | 0.0722 | 0.0473 |  | 0.0649 | 0.0846 | 0.0884
Y12A | 0.0544 | 0.0807 | 0.0732 | 0.0645 | 0.0833 | 0.0826 | 0.0726 | 0.0674 |  | 0.0685 | 0.0647 | 0.0588 | 0.0832 | 0.0871 | 0.0696 |  | 0.0692 | 0.0729 | 0.105
Y12Q | 0.0606 |  | 0.0528 | 0.0582 | 0.105 | 0.0388 | 0.102 | 0.0672 | 0.0815 | 0.0848 | 0.0635 | 0.0517 |  | 0.0703 | 0.0517 |  | 0.0734 | 0.0607 | 0.0399
Y12I | 0.067 | 0.0897 | 0.0644 | 0.0623 | 0.0812 | 0.0667 | 0.0648 | 0.0687 | 0.0729 | 0.0786 | 0.0626 | 0.0432 | 0.0632 | 0.0554 |  | 0.0693 | 0.04 | 0.0775 | 
H21F | 0.0657 | 0.0474 | 0.059 | 0.0597 | 0.0731 |  | 0.11 | 0.0791 | 0.0582 | 0.0384 | 0.0651 | 0.0543 |  | 0.0514 | 0.0598 | 0.0743 | 0.0598 | 0.0647 | 
H21I | 0.0423 | 0.0688 | 0.0615 | 0.0703 | 0.0925 |  |  | 0.0767 | 0.0668 | 0.0668 | 0.0631 | 0.0603 |  | 0.0591 | 0.0689 |  | 0.0661 | 0.0778 | 0.0473
H21E | 0.0613 | 0.0661 | 0.0664 | 0.0641 | 0.0801 |  | 0.0658 | 0.0601 | 0.0674 | 0.0729 | 0.0588 | 0.0608 | 0.0644 | 0.0699 | 0.0604 |  | 0.0553 | 0.0766 | 0.0627
T23G | 0.0704 | 0.0503 | 0.0645 | 0.0704 | 0.0732 | 0.0845 | 0.0429 | 0.0681 | 0.0684 | 0.0322 | 0.0573 | 0.0626 | 0.0552 | 0.067 | 0.0459 |  | 0.047 | 0.0605 | 
T23W | 0.0752 | 0.064 | 0.0624 | 0.109 | 0.0875 |  | 0.0693 | 0.0766 | 0.0756 | 0.067 | 0.0511 | 0.0586 | 0.0665 | 0.0706 | 0.0599 | 0.059 | 0.0846 | 0.0874 | 0.0681
